According to the supplement of paper PMC8728848:
This is one part of the list.

Key:
Test in all cases: glycan array binding signal (z-score within array); higher = stronger binding
Conditions in all cases: glycan notation: IUPAC condensed, linker removed
[1] = molecular target: GlcNAc(b1-3)Gal(b1-4)GlcNAc(b1-3)Gal(b1-4)GlcNAc(b1-2)Man(a1-3)[GlcNAc(b1-3)Gal(b1-4)GlcNAc(b1-3)Gal(b1-4)GlcNAc(b1-2)Man(a1-6)]Man(b1-4)GlcNAc(b1-4)GlcNAc
Summary of the method: (§1)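 Arrays were curated from the Consortium for Functional Glycomics database, 3228 in total, and kept only where the protein sequence was available. Binding is expressed as a within-array Z-score. This score was averaged across arrays of the same protein sequence at different concentrations or buffers and across linkers, and negative values can be read as non-binding.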

[2] = molecular target: GlcNAc(b1-3)Gal(b1-4)GlcNAc(b1-3)Gal(b1-4)GlcNAc(b1-2)Man(a1-3)[GlcNAc(b1-3)Gal(b1-4)GlcNAc(b1-3)Gal(b1-4)GlcNAc(b1-2)Man(a1-6)]Man(b1-4)GlcNAc(b1-4)[Fuc(a1-6)]GlcNAc
Summary of the method: as §1

[3] = molecular target: GlcNAc(b1-3)Gal(b1-4)GlcNAc(b1-3)Gal(b1-4)GlcNAc(b1-2)[GlcNAc(b1-3)Gal(b1-4)GlcNAc(b1-3)Gal(b1-4)GlcNAc(b1-6)]Man(a1-6)[GlcNAc(b1-3)Gal(b1-4)GlcNAc(b1-3)Gal(b1-4)GlcNAc(b1-2)Man(a1-3)]Man(b1-4)GlcNAc(b1-4)[Fuc(a1-6)]GlcNAc
Summary of the method: as §1

[4] = molecular target: GlcNAc(b1-3)Gal(b1-4)GlcNAc(b1-3)Gal(b1-4)GlcNAc(b1-3)Gal(b1-4)GlcNAc(b1-2)Man(a1-3)[GlcNAc(b1-3)Gal(b1-4)GlcNAc(b1-3)Gal(b1-4)GlcNAc(b1-3)Gal(b1-4)GlcNAc(b1-2)Man(a1-6)]Man(b1-4)GlcNAc(b1-4)GlcNAc
Summary of the method: as §1

[5] = molecular target: GlcNAc(b1-3)Gal(b1-4)GlcNAc(b1-3)Gal(b1-4)GlcNAc(b1-3)Gal(b1-4)GlcNAc(b1-2)Man(a1-3)[GlcNAc(b1-3)Gal(b1-4)GlcNAc(b1-3)Gal(b1-4)GlcNAc(b1-3)Gal(b1-4)GlcNAc(b1-2)Man(a1-6)]Man(b1-4)GlcNAc(b1-4)[Fuc(a1-6)]GlcNAc
Summary of the method: as §1

[6] = molecular target: GlcNAc(b1-3)Gal(b1-4)GlcNAc(b1-3)Gal(b1-4)GlcNAc(b1-3)Gal(b1-4)GlcNAc(b1-2)[GlcNAc(b1-3)Gal(b1-4)GlcNAc(b1-3)Gal(b1-4)GlcNAc(b1-3)Gal(b1-4)GlcNAc(b1-6)]Man(a1-6)[GlcNAc(b1-3)Gal(b1-4)GlcNAc(b1-3)Gal(b1-4)GlcNAc(b1-3)Gal(b1-4)GlcNAc(b1-2)Man(a1-3)]Man(b1-4)GlcNAc(b1-4)[Fuc(a1-6)]GlcNAc
Summary of the method: as §1

[7] = molecular target: GlcNAc(b1-3)Gal(b1-4)GlcNAc(b1-3)Gal(b1-4)GlcNAc(b1-3)Gal(b1-4)GlcNAc(b1-3)Gal(b1-4)GlcNAc(b1-2)Man(a1-3)[GlcNAc(b1-3)Gal(b1-4)GlcNAc(b1-3)Gal(b1-4)GlcNAc(b1-3)Gal(b1-4)GlcNAc(b1-3)Gal(b1-4)GlcNAc(b1-2)Man(a1-6)]Man(b1-4)GlcNAc(b1-4)GlcNAc
Summary of the method: as §1

[8] = molecular target: GlcNAc(b1-3)Gal(b1-4)GlcNAc(b1-3)Gal(b1-4)GlcNAc(b1-3)Gal(b1-4)GlcNAc(b1-3)Gal(b1-4)GlcNAc(b1-2)Man(a1-3)[GlcNAc(b1-3)Gal(b1-4)GlcNAc(b1-3)Gal(b1-4)GlcNAc(b1-3)Gal(b1-4)GlcNAc(b1-3)Gal(b1-4)GlcNAc(b1-2)Man(a1-6)]Man(b1-4)GlcNAc(b1-4)[Fuc(a1-6)]GlcNAc
Summary of the method: as §1

[9] = molecular target: GlcNAc(b1-3)Gal(b1-4)GlcNAc(b1-3)Gal(b1-4)GlcNAc(b1-3)Gal(b1-4)GlcNAc(b1-3)Gal(b1-4)GlcNAc(b1-2)[GlcNAc(b1-3)Gal(b1-4)GlcNAc(b1-3)Gal(b1-4)GlcNAc(b1-3)Gal(b1-4)GlcNAc(b1-3)Gal(b1-4)GlcNAc(b1-6)]Man(a1-6)[GlcNAc(b1-3)Gal(b1-4)GlcNAc(b1-3)Gal(b1-4)GlcNAc(b1-3)Gal(b1-4)GlcNAc(b1-3)Gal(b1-4)GlcNAc(b1-2)Man(a1-3)]Man(b1-4)GlcNAc(b1-4)[Fuc(a1-6)]GlcNAc
Summary of the method: as §1

[10] = molecular target: GlcNAc(b1-3)Gal(b1-4)GlcNAc(b1-3)Gal(b1-4)GlcNAc(b1-3)GalNAc
Summary of the method: as §1

[11] = molecular target: GlcNAc(b1-3)Gal(b1-4)GlcNAc(b1-3)GalNAc
Summary of the method: as §1

[12] = molecular target: GlcNAc(b1-3)Gal(b1-4)GlcNAc(b1-3)[GlcNAc(b1-3)Gal(b1-4)GlcNAc(b1-3)]GalNAc
Summary of the method: as §1

[13] = molecular target: GlcNAc(b1-3)Gal(b1-4)GlcNAc(b1-6)[Gal(b1-3)]GalNAc
Summary of the method: as §1

[14] = molecular target: GlcNAc(b1-3)Gal(b1-4)GlcNAc(b1-6)[GlcNAc(b1-3)Gal(b1-3)]GalNAc
Summary of the method: as §1

[15] = molecular target: GlcNAc(b1-3)Gal(b1-4)GlcNAc(b1-6)[GlcNAc(b1-3)]Gal(b1-4)GlcNAc
Summary of the method: as §1

GlcNAc(b1-3)GalNAc = molecular target: GlcNAc(b1-3)GalNAc
Summary of the method: as §1

GlcNAc(b1-3)Man = molecular target: GlcNAc(b1-3)Man
Summary of the method: as §1

[16] = molecular target: GlcNAc(b1-3)[GlcNAc(b1-4)][GlcNAc(b1-6)]GlcNAc
Summary of the method: as §1

[17] = molecular target: GlcNAc(b1-3)[GlcNAc(b1-6)]Gal(b1-4)GlcNAc
Summary of the method: as §1

[18] = molecular target: GlcNAc(b1-3)[GlcNAc(b1-6)]GalNAc
Summary of the method: as §1

[19] = molecular target: GlcNAc(b1-4)Gal(b1-4)GlcNAc
Summary of the method: as §1

GlcNAc(b1-4)GlcNAc = molecular target: GlcNAc(b1-4)GlcNAc
Summary of the method: as §1

[20] = molecular target: GlcNAc(b1-4)GlcNAc(b1-4)GlcNAc
Summary of the method: as §1

B1: MSMEG3662-2a (Mycobacterium smegmatis), A0QYH7_MYCS2 (protein)
chain: MGDTLTAGQKLERGGSLQSGNGAYTLTLQDDGNLVLYARDKAVWSTGTNGQDVVRAEVQTDGNFVLYTAEKPVWHTDTKGKKEVKLVLQDDRNLVLYAKDGPAWSSKTDTTEPPPPAPEPEKEAEVAPAAAEEAAPAPVAEPAPAEPAPAAPPPAPPAPRTYTVVSGDTLWAIAERFYGDGSKYQQIADASGIANPDLIHPGQVLTIP
- glycan array binding signal (z-score) [1]: 0.124
- glycan array binding signal (z-score) [2]: -0.086
- glycan array binding signal (z-score) [3]: 0.085
- glycan array binding signal (z-score) [4]: -0.056
- glycan array binding signal (z-score) [5]: -0.053
- glycan array binding signal (z-score) [6]: -0.065
- glycan array binding signal (z-score) [7]: 0.022
- glycan array binding signal (z-score) [8]: -0.029
- glycan array binding signal (z-score) [9]: 0.237
- glycan array binding signal (z-score) [10]: -0.127
- glycan array binding signal (z-score) [11]: -0.121
- glycan array binding signal (z-score) [12]: -0.116
- glycan array binding signal (z-score) [13]: -0.128
- glycan array binding signal (z-score) [14]: -0.14
- glycan array binding signal (z-score) [15]: -0.127
- glycan array binding signal (z-score) (GlcNAc(b1-3)GalNAc): -0.097
- glycan array binding signal (z-score) (GlcNAc(b1-3)Man): -0.106
- glycan array binding signal (z-score) [16]: -0.054
- glycan array binding signal (z-score) [17]: 0.009
- glycan array binding signal (z-score) [18]: 0.009
- glycan array binding signal (z-score) [19]: -0.146
- glycan array binding signal (z-score) (GlcNAc(b1-4)GlcNAc): 0.084
- glycan array binding signal (z-score) [20]: 3.59
